Experimental data: PubChem BioAssay AID686979 (National Center for Advancing Translational Sciences (NCATS), 2013)
About 50,000 (12%) of roughly 420,000 compounds were called active. Inconclusive means that the source gave no clear call. Such entries were picked first, then a sample of the others. Calls follow the shape of the dose curve; as a rule, active = well fitted inhibition curve with a large enough effect; inconclusive = small, poorly fitted or top-dose-only effect; inactive = flat fitted curve, though single readings scatter. No potency is given beside an inconclusive call; the fits are too rough.

Test: qHTS for Inhibitors of human tyrosyl-DNA phosphodiesterase 1 (TDP1): qHTS in cells in presence of CPT; also: nearly all actives have a fitted effect of over 55% in size
Settings: chicken DT40 Tdp1-/-;hTDP1 cells + 20 nM CPT, ATP luminescence, 48 h; activity change, negative = growth inhibition: at 46.2 µM (top of the series)
In short: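 Chicken DT40 Tdp1-/- cells complemented with human TDP1, 400 cells/well, exposed to compounds plus 20 nM camptothecin for at least 48 h at 37 C; viability read as ATP content by CellTiter-Glo luminescence.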
% is scaled to controls: 0 for no effect and ±100 for the full control effect; potency is read from the fitted curve at half-maximal effect; tags tell the direction and shape of the fitted curve.

| SMILES | Potency | activity change, negative = growth inhibition |
| --- | --- | --- |
| COc1cccc(NC(=O)N(Cc2cc3cc(C)cc(C)c3[nH]c2=O)CC2COCCO2)c1 (centres undefined) | inconclusive [inhibitor, partial curve] | – |
| O=S(=O)(Cc1ccc(Cl)cc1Cl)c1ccc(Cl)cc1 | active: 0.82 µM | – |
| CC1CN(C(=S)SCC(=O)c2ccc(Cl)cc2)CC(C)O1 (centres undefined) | active: 4.11 µM | – |
| CC(=O)c1cccc(CN2CCC(CO)(Cc3ccccc3)CC2)c1 | – | inconclusive: -32.3% [inhibitor] |
| O=C(COc1cccc2c1CCN(Cc1ccccc1)C2=O)NCc1ccco1 | inactive | – |
| COC(=O)c1ccc(NC(=O)CN2C(=O)CNC2=O)cc1 | inactive | – |
| O=C(CCCOc1ccc(Cl)cc1Cl)N/N=C/c1ccccc1 | inconclusive [inhibitor, partial curve] | – |
| Cc1c(C(=O)N2CCC(Cc3ccccc3)CC2)sc2ncnc(NCc3ccccn3)c12 | inconclusive [inhibitor, single point] | – |
| Cc1c(C(=O)OCC(C)C)[nH]c2c1C(=O)CC(c1cccs1)C2 (centres undefined) | active: 2.91 µM | – |
| O=C(Nc1ccccc1)OCC(CN1CCCCC1)OC(=O)Nc1ccccc1 (centres undefined) | inconclusive [inhibitor, single point] | – |
| CC1=C(C(=O)Nc2cccc(C(=O)NC3CCCC(C)C3C)c2)SCCO1 (centres undefined) | inconclusive [inhibitor, single point] | – |
| CCCCNC(=O)COn1nnc2ccc(S(=O)(=O)N3CCOCC3)cc21 | inactive | – |
| N=c1c(S(=O)(=O)c2ccc(Cl)cc2)cc2c(=O)n3ccccc3nc2n1C1CCCC1 | inconclusive [inhibitor, single point] | – |
| CC(C)Cn1cc(C(=O)NCC2CCCO2)c2c3ccccc3n(C)c2c1=O (centres undefined) | inactive | – |
| COc1ccc(Br)cc1C(=O)Nc1ccc(Cc2ccncc2)cc1 | inconclusive [inhibitor, single point] | – |
| Cc1ccc(-c2cc(-c3cccs3)[nH]n2)c(O)c1 | inconclusive [inhibitor, single point] | – |
| O=C(COC(=O)/C=C/c1ccccc1)NNC(=O)c1ccc([N+](=O)[O-])cc1 | inactive | – |
| Cc1cc(Cl)cc(Cl)c1CNc1c([N+](=O)[O-])c(=O)oc2ccccc12 | inconclusive [inhibitor, single point] | – |
| O=C(c1cc2n(n1)C(C(F)(F)F)CC(c1ccco1)N2)N1CCN(c2ccccn2)CC1 (centres undefined) | inconclusive [inhibitor, single point] | – |
| COc1cc(Nc2c3c(nc4ccccc24)CCCC3)cc(OC)c1OC | inconclusive [inhibitor, single point] | – |
| COc1cc(/C=C2/NC(=O)N(Cc3ccccc3F)C2=O)ccc1Oc1ccc([N+](=O)[O-])cn1 | inconclusive [inhibitor, full curve, poor fit] | – |
| Cc1ccc2c(c1)Oc1ccc(NC(=O)CCl)cc1C(=O)N2 | active: 2.59 µM | – |
| O=C(Nc1ccc(-c2nc3ccccc3[nH]2)cc1)c1ccc2c(c1)OCO2 | inconclusive [inhibitor, single point] | – |

| SMILES | Potency | activity change, negative = growth inhibition |
| --- | --- | --- |
| O=C(Nc1cccc(-c2cn3ccccc3n2)c1)c1ccccc1 | inconclusive [inhibitor, single point] | – |
| Cc1ccc2c(c1)c(=O)c(Br)c(C)n2Cc1ccccc1 | inconclusive [inhibitor, single point] | – |
| CCOC(=O)Cn1c(=N)n(CCOc2cccc(C)c2)c2ccccc21 | inconclusive [inhibitor, single point] | – |
| O=C(N/N=C\c1ccc(Cl)s1)c1ccc(Cn2cccn2)o1 | inconclusive [inhibitor, single point] | – |
| CCC(C)N(C(=O)CSc1nnc(COc2ccccc2F)n1N)C1CCS(=O)(=O)C1 (centres undefined) | inactive | – |
| O=C(Nc1ccccn1)c1onc2c1CCCC2 | inactive | – |
| O=c1c2ccccc2nc(-c2ccc(Cl)cc2)n1CCCOc1ccccc1F | inactive | – |
| O=C(NCCc1ccc(Cl)cc1)C1CCN(C(=O)c2sccc2-n2cccc2)CC1 | inconclusive [inhibitor, partial curve] | – |
| CC(C)Oc1ccc(CN2CCCC(CO)(Cc3ccc(F)cc3)C2)cc1 (centres undefined) | inconclusive [inhibitor, single point] | – |
| O=C(Nc1nnc(Cc2ccccc2F)s1)c1ccccc1Cl | inconclusive [inhibitor, single point] | – |
| CC(C)c1ccc(NC(=O)CC2Oc3ccccc3NC2=O)cc1 (centres undefined) | inactive | – |
| Cc1cc(OCC(=O)N(Cc2ccc(N(C)C)cc2)C2CCS(=O)(=O)C2)cc(C)c1Cl (centres undefined) | inconclusive [inhibitor, single point] | – |
| CCCCc1ccc(NC(=O)C2CCN(S(C)(=O)=O)CC2)cc1 | inconclusive [inhibitor, single point] | – |
| CCOC(=O)N1CCN(C(=S)NC2CCCCC2)CC1 | inactive | – |
| O=C(c1ccc(S(=O)(=O)Cc2ccccc2F)c([N+](=O)[O-])c1)N1CCCC1 | active: 18.4 µM | – |
| COc1cc(C(=O)NCCc2csc3nc(-c4ccccc4C)nn23)cc(OC)c1OC | – | inconclusive: -32.7% [inhibitor] |
| O=C(CSc1nc2ccccc2o1)N1c2ccccc2Sc2ccc(C(F)(F)F)cc21 | inconclusive [inhibitor, single point] | – |
| COc1ccc(NC(=O)Cn2c(=O)n(-c3ccc(OC)cc3)c(=O)c3ccc(C(=O)NCc4ccc(C)cc4)cc32)cc1 | inconclusive [inhibitor, single point] | – |
| CC(C)(Cc1ccccc1)/[N+]([O-])=C\c1ccccc1 | inconclusive [inhibitor, single point] | – |
| CC(=O)c1ccc(NC(=O)C2(c3ccccc3)CC2(Cl)Cl)cc1 (centres undefined) | inactive | – |
| CCOC(=O)CC1C(=O)NCCN1C(=O)c1cccc(OC)c1 (centres undefined) | inactive | – |
| CCOc1ncccc1C(=O)OCC(=O)c1ccc(Br)s1 | inconclusive [inhibitor, partial curve, poor fit] | – |
| Cc1cc(NN)nc(NS(=O)(=O)c2ccccc2Cl)n1 | inactive | – |

| SMILES | Potency | activity change, negative = growth inhibition |
| --- | --- | --- |
| CCN1CCN(S(=O)(=O)c2ccc(Cl)c(C(=O)Nc3cc(Cl)ccc3N3CCOCC3)c2)CC1 | inconclusive [inhibitor, single point] | – |
| COc1cc(-c2ccc(C)cc2)cc2c1OCCN(C(=O)CCn1ccc(C)n1)C2 | – | inactive: -0.456% [at 9.04 µM] |
| Cc1ccc(Cl)cc1NC(=O)CN1C(=O)COc2ccc(S(=O)(=O)N3CCCCCC3)cc21 | inactive | – |
| COc1ccc(C(=S)N(C)C)cc1OC | inconclusive [inhibitor, single point] | – |
| COc1ccccc1CCNC(=O)CCc1c(C)c2cc3c(C)c(C)oc3cc2oc1=O | active: 18.4 µM | – |
| COc1ccccc1OCCC(=O)N1CCN(c2ccccc2OC)CC1 | inconclusive [inhibitor, single point] | – |
| Clc1ccccc1/C=N/c1cc(-c2ccccc2)nn1-c1ccccc1 | inconclusive [inhibitor, single point] | – |
| Cc1ccc(NC(=O)C(=O)NCC(c2ccc3c(c2)OCO3)N2CCN(c3ccccc3)CC2)cc1 (centres undefined) | inactive | – |
| CCn1c(SCC(=O)c2cc(C)ccc2C)nc2cc(S(=O)(=O)N3CCOCC3)ccc21 | inconclusive [inhibitor, single point] | – |
| CC1(C)CC(=O)CC2(C1)NCC(c1ccccc1Cl)c1c2[nH]c2ccccc12 (centres undefined) | active: 18.4 µM | – |
| N#Cc1ncc(C(F)(F)F)cc1Sc1ccc(N)cc1 | inconclusive [inhibitor, single point] | – |
| Cc1ccccc1CNC(=O)c1ccc2sc([C@H]3C[C@H](O)[C@@H](CO)O3)nc2c1 | inactive | – |
| Cc1ccc(C(=O)NNC(=O)c2cc3cc4ccccc4nc3s2)cc1 | inconclusive [inhibitor, single point] | – |
| CCCCn1c(SCC(=O)N2CCC(C)CC2)nc2ccsc2c1=O | inconclusive [inhibitor, single point] | – |
| CNC(=S)N1CCN(c2nc(-c3cccc(OC)c3)cs2)CC1 | inconclusive [inhibitor, single point] | – |
| O=C(c1cccs1)c1cn(CCOc2ccccc2Cl)c2ccccc12 | inconclusive [inhibitor, single point] | – |
| Cc1ccccc1-c1nc(CS(=O)CC(=O)NCCN2CCN(Cc3ccccc3)CC2)c(C)o1 (centres undefined) | inconclusive [inhibitor, partial curve, poor fit] | – |
| Cc1ccnc(NC(=O)CCC(=O)N(CC(=O)NCCc2ccccc2)c2ccc(F)cc2)c1 | inconclusive [inhibitor, single point] | – |
| Cc1[nH]c2ccccc2c1C(C#N)(C#N)C1C(=O)c2ccccc2C1=O | active: 2.06 µM | – |
| CCN(Cc1ccccc1)S(=O)(=O)c1ccc(C(=O)N(CCCN(C)C)c2nc3ccc(F)cc3s2)cc1 | inconclusive [inhibitor, single point] | – |
| CCOc1cc(S(=O)(=O)N2CC=C(c3ccc(F)cc3)CC2)c(OCC)cc1-n1cnnn1 | active: 14.6 µM | – |
| COc1ccc(NC(=O)CSc2nc(-c3ccc(F)cc3)c3cccc(C)c3n2)cc1 | inconclusive [inhibitor, full curve, poor fit] | – |
| COc1ccc2cc1Oc1ccc(cc1)CC1c3c(cc(OC)c4c3Oc3cc5c(cc3O4)CCNC5C2)CCN1C (centres undefined) | active: 2.91 µM | – |
